Out of some 310,000 compounds screened, about 2,200 (0.71%) showed an effect of 50% or more. Effects have a minus sign here. The list shows a part of the results.
Target: human ether-à-go-go-related gene (hERG) potassium channel (human, UniProt Q12809)
Assay: primary screen, population patch clamp on CHO cells stably expressing hERG

Chain of human ether-à-go-go-related gene (hERG) potassium channel (Q12809 whole entry, looked up): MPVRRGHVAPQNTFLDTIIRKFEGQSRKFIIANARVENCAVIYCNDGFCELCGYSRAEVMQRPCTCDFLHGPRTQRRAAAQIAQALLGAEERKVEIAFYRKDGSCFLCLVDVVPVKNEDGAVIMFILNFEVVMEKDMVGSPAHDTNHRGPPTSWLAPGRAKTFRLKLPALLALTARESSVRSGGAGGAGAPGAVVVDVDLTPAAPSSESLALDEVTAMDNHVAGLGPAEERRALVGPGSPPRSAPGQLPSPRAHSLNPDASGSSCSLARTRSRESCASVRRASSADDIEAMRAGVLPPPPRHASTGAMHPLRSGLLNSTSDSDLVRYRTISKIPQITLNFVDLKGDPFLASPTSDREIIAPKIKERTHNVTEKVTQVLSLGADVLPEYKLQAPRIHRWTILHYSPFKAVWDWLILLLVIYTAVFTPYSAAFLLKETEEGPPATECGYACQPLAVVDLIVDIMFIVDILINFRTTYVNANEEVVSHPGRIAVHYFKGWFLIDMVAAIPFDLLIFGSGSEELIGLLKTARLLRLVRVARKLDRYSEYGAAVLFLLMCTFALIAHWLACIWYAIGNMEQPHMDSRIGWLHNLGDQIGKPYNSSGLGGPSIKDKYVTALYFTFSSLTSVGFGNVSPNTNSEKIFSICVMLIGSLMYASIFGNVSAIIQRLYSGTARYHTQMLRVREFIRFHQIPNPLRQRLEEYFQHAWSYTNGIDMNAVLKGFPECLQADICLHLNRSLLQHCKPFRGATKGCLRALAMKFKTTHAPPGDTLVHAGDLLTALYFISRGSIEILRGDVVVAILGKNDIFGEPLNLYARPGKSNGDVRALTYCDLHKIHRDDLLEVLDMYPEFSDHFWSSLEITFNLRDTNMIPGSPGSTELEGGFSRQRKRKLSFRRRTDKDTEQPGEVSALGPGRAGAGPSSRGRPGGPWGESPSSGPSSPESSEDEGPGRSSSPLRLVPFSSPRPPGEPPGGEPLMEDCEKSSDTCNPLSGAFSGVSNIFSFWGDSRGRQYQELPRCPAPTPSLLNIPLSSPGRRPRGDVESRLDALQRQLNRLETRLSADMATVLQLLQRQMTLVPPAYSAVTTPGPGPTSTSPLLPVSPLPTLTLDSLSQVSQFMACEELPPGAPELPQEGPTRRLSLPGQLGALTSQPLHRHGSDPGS

| Compound | hERG current change (%, negative = inhibition) at 1uM [%] |
| --- | --- |
| CCCN(CCC)CCCNC(=O)C(NS(=O)(=O)c1ccc2c(c1)CCC(=O)N2)c1ccccc1 (centres unmarked) | 14.5 |
| CC(C)c1ccc(S(=O)(=O)N2CCN(C(=O)C3CCCC3)CC2)cc1 | 7.55 |
| CC(=O)NC(Cc1ccccc1)C(=O)OCC(=O)c1ccc(Br)cc1 (centres unmarked) | 11.8 |
| CNS(=O)(=O)c1cc(NC(=O)c2cnc(SC)n2-c2ccccc2)ccc1C | 16.3 |
| Clc1cccc(CN2CCC(Cc3ccccc3)CC2)c1 | -0.686 |
| Cc1ccc([N+](=O)[O-])cc1Nc1nc(N2CCOCC2)nc(N2CCOCC2)n1 | 2.41 |
| CCC(NC(=S)NCc1ccc(F)cc1)c1ccc(C(C)C)cc1 (centres unmarked) | 18.2 |
| CC1CCC2(CC1)NC(=O)N(CC(=O)N1CCc3ccccc3C1)C2=O (centres unmarked) | 18.1 |
| CCCC1(C(=O)OCC)NC(c2ccco2)C2C(=O)N(C)C(=O)C21 (centres unmarked) | 1.11 |
| CCN(CC)C1CC(=O)N(c2cccc(Cl)c2)C1=O (centres unmarked) | 19.1 |
| Cc1ccc(-c2nnn(CC(=O)N(CCCO)C(C(=O)NC3CCCC3)c3ccc(Cl)cc3)n2)o1 (centres unmarked) | 11.7 |
| CC(=O)Nc1cccc(OCc2ccc(S(=O)(=O)Cc3ccccc3)cc2)c1 | 0.658 |
| O=C(Nc1cc(S(=O)(=O)N2CCOCC2)ccc1N1CCCCC1)c1ccccc1 | 4.65 |
| O=C(Cn1nnc(-c2ccccc2)n1)NCc1ccc2c(c1)OCO2 | 10.2 |
| O=C(c1cnccn1)N1CCCC(N2CCN(c3cccc(Cl)c3)CC2)C1 (centres unmarked) | 2.94 |
| CC1CCC(NC(=O)CN2CCCN(Cc3ccc(F)cc3Cl)C2=O)CC1 (centres unmarked) | 8.34 |
| NC(=O)COc1ccc(C(=O)NCC2(N3CCOCC3)CCCCC2)cc1 | 16 |
| O=S(=O)(c1ccc(F)cc1)N1CCN(Cc2cc3c(cc2Br)OCCO3)CC1 | -1.54 |
| CCCCn1c(N)c(N(CCC(C)C)C(=O)c2ccc([N+](=O)[O-])o2)c(=O)[nH]c1=O | 8.25 |
| COC(=O)c1c[nH]n2c(=O)cc(C)nc12 | 7.66 |
| CN(CC(=O)NC1CCCCCC1)S(=O)(=O)c1ccc(F)cc1 | 10.4 |
| Nc1nc(CN2CCN(c3ccc(F)cc3)CC2)nc(N2CCCc3ccccc32)n1 | 3.89 |

| Compound | hERG current change (%, negative = inhibition) at 1uM [%] |
| --- | --- |
| COc1ccc2c(c1)CCc1cn3ncc(C#N)c3nc1-2 | 3.26 |
| Cc1ccc(NC(=O)CSc2nnc(-c3ccncc3)o2)cc1 | 14.6 |
| Cc1noc(NS(=O)(=O)c2ccc(NC(=O)CSc3nc4ccccc4s3)cc2)c1C | 4.66 |
| CCCCc1nnc2c(N(C)S(=O)(=O)c3ccc(C)cc3)nc3ccccc3n12 | 3.84 |
| O=C(CCN1C(=O)c2ccccc2C1=O)N1CCN(Cc2ccc(Cl)cc2Cl)CC1 | -6.95 |
| COc1cc(/C=C(/C#N)c2nc3ccccc3[nH]2)ccc1OCC(=O)Nc1ccccc1C | 14.9 |
| CCc1nn(CCCN2CCN(c3cccc(Cl)c3)CC2)c(=O)n1CCOc1ccccc1.Cl | -13.2 |
| Cl.OCCN1C2=NCCCN2c2ccccc21 | 10.3 |
| N#C/C(=C\c1ccc(C#N)cc1)C(=O)c1ccccc1 | 12.3 |
| CCN(CC)CCC(c1ccc2c(c1)OCO2)c1c(OC)cc(OC)c2ccc(=O)oc12 (centres unmarked) | -18.1 |
| CCN1CCN(S(=O)(=O)c2cccs2)CC1 | 10.3 |
| Cc1ccc(S(=O)(=O)CNC(=S)c2cccc(C)c2)cc1 | -8.28 |
| O=C(CCN1CCN(c2ccccc2)CC1)N/N=C/c1ccc([N+](=O)[O-])o1 | -58.5 |
| Cc1cccc(NC(=O)CN2CCN(C(=O)C3CCC3)CC2)c1C | -7.56 |
| COc1cc2cc(/C=C/C(=O)c3ccco3)c(Cl)nc2cc1OC | 14.6 |
| Cn1c(=O)c2c(ncn2CC(=O)N2CCN(c3ccc(F)cc3)CC2)n(C)c1=O | -0.183 |
| O=C(COC(=O)Cc1ccc(Cl)cc1Cl)Nc1ccccc1OC(F)F | 12.8 |
| N#CC(C#N)=Cc1ccc(-c2ccc(S(=O)(=O)N=C(N)N)cc2)o1 | 1.33 |
| Oc1cc(O)c2c(c1)O[C@H](c1ccc(O)c(O)c1)[C@H](O)C2 | -1.21 |
| COc1ccccc1Cn1c(=S)[nH]c2ccc(Br)cc2c1=O | 13.6 |
| O=C(Cn1nc(C(=O)O)c2ccccc2c1=O)Nc1nc(-c2ccccc2)cs1 | 9.78 |
| O=[N+]([O-])c1ccccc1OCCOc1ccccc1[N+](=O)[O-] | 11.7 |
